Assay results taken from the supplement of paper PMC8728848.
Some of the results follow.

What was measured:
Assay in all cases: glycan array binding signal (z-score within array); higher = stronger binding
Details in all cases: glycan notation: IUPAC condensed, linker removed
[1] = target: Fuc(a1-2)[Gal(a1-3)]Gal(b1-4)GlcNAc(b1-2)Man(a1-3)[Fuc(a1-2)[Gal(a1-3)]Gal(b1-4)GlcNAc(b1-2)Man(a1-6)]Man(b1-4)GlcNAc(b1-4)GlcNAc
Outline: (§1)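 Columns mapping to the same glycan were averaged after glycan names were converted to IUPAC-condensed notation. The data come from 3228 arrays in the Consortium for Functional Glycomics database, limited to those with an available protein sequence. Binding is reported as a within-array Z-score averaged across arrays of one protein sequence and across linkers.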

[2] = target: Fuc(a1-2)[Gal(a1-3)]Gal(b1-4)GlcNAc(b1-2)Man(a1-3)[Fuc(a1-2)[Gal(a1-3)]Gal(b1-4)GlcNAc(b1-2)Man(a1-6)]Man(b1-4)GlcNAc(b1-4)[Fuc(a1-6)]GlcNAc
Outline: as §1

[3] = target: Fuc(a1-2)[Gal(a1-3)]Gal(b1-4)GlcNAc(b1-3)GalNAc
Outline: as §1

[4] = target: Fuc(a1-2)[Gal(a1-3)]Gal(b1-4)GlcNAc(b1-3)[Fuc(a1-2)[Gal(a1-3)]Gal(b1-4)GlcNAc(b1-6)]GalNAc
Outline: as §1

[5] = target: Fuc(a1-2)[Gal(a1-3)]Gal(b1-4)GlcNAc(b1-6)GalNAc
Outline: as §1

[6] = target: Fuc(a1-2)[Gal(a1-3)]Gal(b1-4)[Fuc(a1-3)]Glc
Outline: as §1

[7] = target: Fuc(a1-2)[Gal(a1-3)]Gal(b1-4)[Fuc(a1-3)]GlcNAc
Outline: as §1

[8] = target: Fuc(a1-2)[Gal(a1-3)]Gal(b1-4)[Fuc(a1-3)]GlcNAc(b1-3)GalNAc
Outline: as §1

[9] = target: Fuc(a1-2)[Gal(a1-4)]Gal(b1-4)GlcNAc
Outline: as §1

[10] = target: Fuc(a1-2)[GalNAc(a1-3)]Gal
Outline: as §1

[11] = target: Fuc(a1-2)[GalNAc(a1-3)]Gal(b1-3)GalNAc(a1-3)[Fuc(a1-2)]Gal(b1-4)GlcNAc
Outline: as §1

[12] = target: Fuc(a1-2)[GalNAc(a1-3)]Gal(b1-3)GalNAc(b1-3)Gal(a1-4)Gal(b1-4)Glc
Outline: as §1

[13] = target: Fuc(a1-2)[GalNAc(a1-3)]Gal(b1-3)GlcNAc
Outline: as §1

[14] = target: Fuc(a1-2)[GalNAc(a1-3)]Gal(b1-3)GlcNAc(b1-2)Man(a1-3)[Fuc(a1-2)[GalNAc(a1-3)]Gal(b1-3)GlcNAc(b1-2)Man(a1-6)]Man(b1-4)GlcNAc(b1-4)GlcNAc
Outline: as §1

[15] = target: Fuc(a1-2)[GalNAc(a1-3)]Gal(b1-3)GlcNAc(b1-2)Man(a1-3)[Fuc(a1-2)[GalNAc(a1-3)]Gal(b1-3)GlcNAc(b1-2)Man(a1-6)]Man(b1-4)GlcNAc(b1-4)[Fuc(a1-6)]GlcNAc
Outline: as §1

[16] = target: Fuc(a1-2)[GalNAc(a1-3)]Gal(b1-3)GlcNAc(b1-3)GalNAc
Outline: as §1

[17] = target: Fuc(a1-2)[GalNAc(a1-3)]Gal(b1-3)GlcNAc(b1-6)GalNAc
Outline: as §1

[18] = target: Fuc(a1-2)[GalNAc(a1-3)]Gal(b1-4)Glc
Outline: as §1

[19] = target: Fuc(a1-2)[GalNAc(a1-3)]Gal(b1-4)GlcNAc
Outline: as §1

[20] = target: Fuc(a1-2)[GalNAc(a1-3)]Gal(b1-4)GlcNAc(b1-2)Man
Outline: as §1

[21] = target: Fuc(a1-2)[GalNAc(a1-3)]Gal(b1-4)GlcNAc(b1-2)Man(a1-3)[Fuc(a1-2)[GalNAc(a1-3)]Gal(b1-4)GlcNAc(b1-2)Man(a1-6)]Man(b1-4)GlcNAc(b1-4)GlcNAc
Outline: as §1

[22] = target: Fuc(a1-2)[GalNAc(a1-3)]Gal(b1-4)GlcNAc(b1-2)Man(a1-3)[Fuc(a1-2)[GalNAc(a1-3)]Gal(b1-4)GlcNAc(b1-2)Man(a1-6)]Man(b1-4)GlcNAc(b1-4)[Fuc(a1-6)]GlcNAc
Outline: as §1

[23] = target: Fuc(a1-2)[GalNAc(a1-3)]Gal(b1-4)GlcNAc(b1-3)Gal(b1-4)GlcNAc
Outline: as §1

[24] = target: Fuc(a1-2)[GalNAc(a1-3)]Gal(b1-4)GlcNAc(b1-3)Gal(b1-4)GlcNAc(b1-3)Gal(b1-4)GlcNAc
Outline: as §1

[25] = target: Fuc(a1-2)[GalNAc(a1-3)]Gal(b1-4)GlcNAc(b1-3)GalNAc
Outline: as §1

[26] = target: Fuc(a1-2)[GalNAc(a1-3)]Gal(b1-4)GlcNAc(b1-3)[Fuc(a1-2)[GalNAc(a1-3)]Gal(b1-4)GlcNAc(b1-6)]GalNAc
Outline: as §1

[27] = target: Fuc(a1-2)[GalNAc(a1-3)]Gal(b1-4)GlcNAc(b1-6)GalNAc
Outline: as §1

[28] = target: Fuc(a1-2)[GalNAc(a1-3)]Gal(b1-4)[Fuc(a1-3)]GlcNAc
Outline: as §1

[29] = target: Fuc(a1-2)[GalNAc(a1-3)]Gal(b1-4)[Fuc(a1-3)]GlcNAc(b1-3)GalNAc
Outline: as §1

[30] = target: Fuc(a1-2)[GalNAc(a1-4)]Gal(b1-4)GlcNAc
Outline: as §1

[31] = target: Fuc(a1-2)[GalNAc(b1-3)]Gal
Outline: as §1

Fuc(a1-3)GlcNAc = target: Fuc(a1-3)GlcNAc
Outline: as §1

[32] = target: Fuc(a1-3)[Gal(b1-4)]Glc6S
Outline: as §1

[33] = target: Fuc(a1-3)[Gal(b1-4)]GlcNAc
Outline: as §1

[34] = target: Fuc(a1-3)[Gal(b1-4)]GlcNAc(b1-2)Man
Outline: as §1

[35] = target: Fuc(a1-3)[Gal(b1-4)]GlcNAc(b1-2)Man(a1-3)[Fuc(a1-3)[Gal(b1-4)]GlcNAc(b1-2)Man(a1-6)]Man(b1-4)GlcNAc(b1-4)GlcNAc
Outline: as §1

[36] = target: Fuc(a1-3)[Gal(b1-4)]GlcNAc(b1-2)Man(a1-3)[Fuc(a1-3)[Gal(b1-4)]GlcNAc(b1-2)Man(a1-6)]Man(b1-4)GlcNAc(b1-4)[Fuc(a1-6)]GlcNAc
Outline: as §1

[37] = target: Fuc(a1-3)[Gal(b1-4)]GlcNAc(b1-3)Gal(b1-3)[Fuc(a1-4)]GlcNAc
Outline: as §1

[38] = target: Fuc(a1-3)[Gal(b1-4)]GlcNAc(b1-3)Gal(b1-4)[Fuc(a1-3)]GlcNAc
Outline: as §1

[39] = target: Fuc(a1-3)[Gal(b1-4)]GlcNAc(b1-3)Gal(b1-4)[Fuc(a1-3)]GlcNAc(b1-3)Gal(b1-4)[Fuc(a1-3)]GlcNAc
Outline: as §1

[40] = target: Fuc(a1-3)[Gal(b1-4)]GlcNAc(b1-3)GalNAc
Outline: as §1

[41] = target: Fuc(a1-3)[Gal(b1-4)]GlcNAc(b1-6)GalNAc
Outline: as §1

[42] = target: Fuc(a1-3)[Gal(b1-4)]GlcNAc(b1-6)[Gal(b1-3)GlcNAc(b1-3)]Gal(b1-4)Glc
Outline: as §1

[43] = target: Fuc(a1-3)[Gal(b1-4)]GlcNAc6S
Outline: as §1

[44] = target: Fuc(a1-3)[Gal3S(b1-4)]Glc
Outline: as §1

B1: CML1 (Coprinopsis cinerea) (protein)
chain: MAIFHTGSELFIITRGPGKLTLLTWGGLNNLRSVIGAIPTENTGVTKWAVSFSHNYTRFSFIWEGQGEACYQIGNGLTRSPVGRSWSSSSTIHWGSSTVITEDVTSVVPGAVNRDKVTTAYALPDNL
Question: Which “glycan array binding signal (z-score)” value [1] does the source give for B1 here?
Answer: The value was -0.242.

Question: And the “glycan array binding signal (z-score)” value [2]?
Answer: The value was -0.336.

Question: And the “glycan array binding signal (z-score)” value [3]?
Answer: Its value is -0.341.

Question: What about the “glycan array binding signal (z-score)” value [4] of the same binder?
Answer: Its value is -0.341.

Question: And the “glycan array binding signal (z-score)” value [5]?
Answer: The value was -0.339.

Question: What about the “glycan array binding signal (z-score)” value [6] of the same binder?
Answer: The value was -0.333.

Question: And the “glycan array binding signal (z-score)” value [7]?
Answer: The value was -0.34.

Question: What about the “glycan array binding signal (z-score)” value [8] of the same binder?
Answer: Its value is -0.284.

Question: What about the “glycan array binding signal (z-score)” value [9] of the same binder?
Answer: Its value is -0.314.

Question: What about the “glycan array binding signal (z-score)” value [10] of the same binder?
Answer: The value was -0.333.

Question: And the “glycan array binding signal (z-score)” value [11]?
Answer: Its value is -0.319.

Question: What about the “glycan array binding signal (z-score)” value [12] of the same binder?
Answer: The value was -0.352.

Question: What about the “glycan array binding signal (z-score)” value [13] of the same binder?
Answer: The value was 2.92.

Question: And the “glycan array binding signal (z-score)” value [14]?
Answer: The value was 1.14.

Question: And the “glycan array binding signal (z-score)” value [15]?
Answer: Its value is 0.392.

Question: And the “glycan array binding signal (z-score)” value [16]?
Answer: The value was 0.251.

Question: And the “glycan array binding signal (z-score)” value [17]?
Answer: The value was 1.59.

Question: And the “glycan array binding signal (z-score)” value [18]?
Answer: Its value is -0.315.

Question: What about the “glycan array binding signal (z-score)” value [19] of the same binder?
Answer: Its value is -0.358.

Question: And the “glycan array binding signal (z-score)” value [20]?
Answer: Its value is -0.348.

Question: And the “glycan array binding signal (z-score)” value [21]?
Answer: The value was -0.269.

Question: And the “glycan array binding signal (z-score)” value [22]?
Answer: Its value is -0.355.

Question: What about the “glycan array binding signal (z-score)” value [23] of the same binder?
Answer: Its value is -0.346.

Question: And the “glycan array binding signal (z-score)” value [24]?
Answer: Its value is -0.31.

Question: And the “glycan array binding signal (z-score)” value [25]?
Answer: Its value is -0.337.

Question: And the “glycan array binding signal (z-score)” value [26]?
Answer: The value was -0.348.

Question: What about the “glycan array binding signal (z-score)” value [27] of the same binder?
Answer: The value was -0.357.

Question: And the “glycan array binding signal (z-score)” value [28]?
Answer: The value was -0.359.

Question: What about the “glycan array binding signal (z-score)” value [29] of the same binder?
Answer: The value was -0.335.

Question: And the “glycan array binding signal (z-score)” value [30]?
Answer: Its value is -0.305.

Question: And the “glycan array binding signal (z-score)” value [31]?
Answer: The value was -0.318.

Question: What about the “glycan array binding signal (z-score)” value (Fuc(a1-3)GlcNAc) of the same binder?
Answer: The value was -0.344.

Question: And the “glycan array binding signal (z-score)” value [32]?
Answer: The value was -0.225.

Question: And the “glycan array binding signal (z-score)” value [33]?
Answer: The value was 0.691.

Question: What about the “glycan array binding signal (z-score)” value [34] of the same binder?
Answer: Its value is -0.325.

Question: And the “glycan array binding signal (z-score)” value [35]?
Answer: The value was 0.242.

Question: And the “glycan array binding signal (z-score)” value [36]?
Answer: Its value is -0.299.

Question: And the “glycan array binding signal (z-score)” value [37]?
Answer: The value was -0.006.

Question: And the “glycan array binding signal (z-score)” value [38]?
Answer: The value was 0.811.

Question: What about the “glycan array binding signal (z-score)” value [39] of the same binder?
Answer: The value was 2.45.

Question: And the “glycan array binding signal (z-score)” value [40]?
Answer: The value was -0.098.

Question: What about the “glycan array binding signal (z-score)” value [41] of the same binder?
Answer: The value was -0.348.

Question: What about the “glycan array binding signal (z-score)” value [42] of the same binder?
Answer: Its value is -0.296.

Question: And the “glycan array binding signal (z-score)” value [43]?
Answer: The value was -0.346.

Question: What about the “glycan array binding signal (z-score)” value [44] of the same binder?
Answer: The value was 1.15.
